About 6,000 (1.7%) of roughly 360,000 compounds were called active. Inconclusive results, whose numbers are uncertain, are shown with a selection of clear calls. The call rests on the fitted dose curve; in most records, active means well fitted cell-killing curve with a large enough effect; inconclusive means small, poorly fitted or top-dose-only effect, or effect the other way; inactive means flat fitted curve, though single readings scatter. Potencies of inconclusive entries are left out as doubtful fits.
assay: qHTS for induction of synthetic lethality in tumor cells producing 2HG: qHTS for the HT-1080-NT fibrosarcoma cell line; conditions: HT-1080-NT fibrosarcoma viability, CellTiter-Glo ATP luminescence, 48 h; activity, negative = less viability: at 46.1 µM (top of the series) unless noted;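 further: NT is the 2HG producing partner of a matched IDH1 knockdown line; nearly all actives have a fitted effect of over 55% in size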;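 on activity, negative = less viability: 0% = DMSO-treated cells and -100% = media-only wells without cells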
Summary of the method: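 Compounds were tested in concentration-response format on HT-1080-NT cells for 48 hours at 37 degrees C. Cell viability came from CellTiter-Glo luminescence; curves were classified by r2, response magnitude and activity.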
Potency means the concentration at half of the fitted maximal effect; tags describe the fitted curve by direction and shape.

For `CN(C1CCCCC1)S(=O)(=O)c1ccc(S(=O)(=O)N2CCN(C(=O)c3ccccc3F)CC2)cc1`, which Potency is on record?
The Potency was “inactive”.

Which Potency does the source give for `CCOC(=O)[C@@H]1[C@H]2COc3ccccc3[C@H]2N2C(=O)N(c3cccc(Cl)c3)C(=O)[C@@]12C` here?
The Potency was inconclusive [cytotoxic, single point].

For `COc1cc(C2C3CN(C)CC=C3C(C#N)=C(N)C2(C#N)C#N)ccc1OC(C)C` (stereo not drawn), which Potency is on record?
The Potency was “inactive”.

For `O=c1c2ccccc2nnn1CSc1nnc(COc2ccc(Cl)cc2)n1Cc1ccco1`, which Potency is on record?
The Potency was “inactive”.

For `Cc1cc2c(NC(=O)Nc3ccc(C(C)(C)C)cc3)cccc2nn1`, which Potency is on record?
Its Potency is inconclusive [cytotoxic, single point].

For `CC(C)c1cc(C(C)C)c(S(=O)(=O)NC(c2ccccn2)C23CC2C3)c(C(C)C)c1` (stereo not drawn), which Potency is on record?
The Potency was inconclusive [cytotoxic, single point].

Which Potency does the source give for `Oc1[nH]c(N=C2N=c3ccccc3=N2)c2ccccc12` here?
The Potency was inconclusive [cytotoxic, single point].

Which Potency does the source give for `C=CCC[C@H](Cc1ccc(F)cc1)C(=O)OC[C@@H](NC(=O)[C@@H](CC=C)CC(=O)N[C@H](CO)Cc1ccccc1)C(C)(C)C` here?
The Potency was inconclusive [cytotoxic, single point].

With `CCc1ccc2oc(C(=O)NC3CCS(=O)(=O)C3)cc(=O)c2c1` (stereo not drawn) as the compound, how does the Potency read?
Its Potency is inconclusive [rising, single point].

With `COc1ccc(-c2cc(C(=O)NCCN3CCOCC3)no2)cc1OC` as the compound, how does the Potency read?
The Potency was “inactive”.

Which Potency does the source give for `CN(Cc1ccc(OCC(O)CN2CCCCC2)cc1)Cc1ccnc2ccccc12` (stereo not drawn) here?
The Potency was “inactive”.

With `COc1cc(Cl)c(C)cc1NC(=O)CSc1ccccc1` as the compound, how does the Potency read?
Its Potency is “inactive”.

Which Potency does the source give for `O=C(Nc1ccc(S(=O)(=O)N2CCOCC2)cc1)c1cc(-c2cc(Cl)ccc2O)n[nH]1` here?
Its Potency is inconclusive [cytotoxic, single point].

With `CCOc1ccc(S(=O)(=O)N(CC(=O)N/N=C/c2cccs2)c2ccc(C)cc2)cc1` as the compound, how does the Potency read?
Its Potency is inconclusive [cytotoxic, single point].

With `Cc1cccc(Nc2nc(N)c([N+](=O)[O-])c(N3CC(C)CC(C)C3)n2)c1` (stereo not drawn) as the compound, how does the Potency read?
Its Potency is active: 16.4 µM.

Which Potency does the source give for `CC12CCC(C(=O)N(CSC(=S)N/N=C\c3ccccc3O)C1=O)C2(C)C` (stereo not drawn) here?
The Potency was inconclusive [cytotoxic, single point].

With `COc1ccccc1C(=O)N1CCN(c2nc3cc(C)c(C)cc3cc2C#N)CC1` as the compound, how does the Potency read?
Its Potency is inconclusive [cytotoxic, single point].

With `COCCn1c(SCC(=O)Nc2ccc(NC(=O)c3ccco3)c(OC)c2)nc2ccccc2c1=O` as the compound, how does the activity, negative = less viability read?
Its activity, negative = less viability is inconclusive: 4.07% [cytotoxic].

With `CCOc1ccc(C(CCc2ccccc2)NC(=O)c2ccccc2OC)cc1OCC` (stereo not drawn) as the compound, how does the Potency read?
Its Potency is inconclusive [cytotoxic, single point].

For `c1ccc2c(CC3=NCCN3)cccc2c1`, which activity, negative = less viability is on record?
The activity, negative = less viability was inconclusive: 32.4%.

Which Potency does the source give for `COc1ccc(CC(=O)NC(C)c2ccc3ccccc3c2)cc1` (stereo not drawn) here?
The Potency was “inactive”.

With `Cc1ccc(C(=O)NC(=S)Nc2ccc(NC(=O)c3cccc(Cl)c3)cc2)cc1` as the compound, how does the Potency read?
The Potency was inconclusive [cytotoxic, single point].

Which Potency does the source give for `Cc1nc2cc(F)ccc2n1C1CCN(C(=O)c2ccc(F)cc2F)CC1` here?
Its Potency is inconclusive [cytotoxic, partial curve].

Which Potency does the source give for `Cc1ccc(NC(=O)C2CCCN2C(=O)Oc2ccccc2)cc1C` (stereo not drawn) here?
Its Potency is “inactive”.

Which Potency does the source give for `CCCc1cc2c(=O)c(-c3ccc4c(c3)OCCO4)coc2cc1OC(=O)c1ccco1` here?
Its Potency is inconclusive [cytotoxic, single point].

Which Potency does the source give for `Cc1cc(C(=O)N[C@H](c2ccccc2)[C@@]2(C)C[C@@H]2[C@@H](C)C(=O)Nc2ccc3ccccc3c2)n(C)n1` here?
The Potency was “inactive”.

With `Cc1cc(NC(=O)CSCc2nc(-c3cccc(F)c3)oc2C)no1` as the compound, how does the Potency read?
The Potency was “inactive”.

Which Potency does the source give for `CCOC(=O)C1=C(c2ccccc2)N=c2s/c(=C\c3cccc(O)c3)c(=O)n2C1c1cccs1` (stereo not drawn) here?
The Potency was inconclusive [cytotoxic, single point].

For `COc1ccc(NS(=O)(=O)c2csc(C(=O)Nc3ccccc3)c2)cc1`, which Potency is on record?
The Potency was inconclusive [cytotoxic, single point].

For `O=S(=O)(NC1CCN(Cc2ccccc2)CC1)c1cccc2cccnc12`, which Potency is on record?
Its Potency is inconclusive [cytotoxic, single point].

With `COc1ccc(C(=O)c2[nH]c(N)c(C(=O)NCCc3c[nH]c4ccccc34)c2-c2ccc(OC)c(OC)c2)cc1` as the compound, how does the Potency read?
Its Potency is inconclusive [cytotoxic, single point].

For `CC(Sc1nnc(-c2cccnc2)n1N)C(=O)NCCC1=CCCCC1` (stereo not drawn), which Potency is on record?
Its Potency is “inactive”.

With `Cc1c(C(=O)NCCC2=CCCCC2)oc2ccc(S(=O)(=O)N3CCC4(CC3)OCCO4)cc12` as the compound, how does the Potency read?
The Potency was “inactive”.

With `CCCCC(NC(=O)Cc1c(C)c2cc3c(-c4ccccc4)coc3c(C)c2oc1=O)C(=O)O` (stereo not drawn) as the compound, how does the Potency read?
Its Potency is inconclusive [cytotoxic, single point].

Which Potency does the source give for `O=C1CCN(CCc2ccccc2)CCN1[C@H](CSc1ccc(Br)cc1)c1ccccc1` here?
Its Potency is “inactive”.

With `CCCN(CCC)S(=O)(=O)c1ccc(Cl)c([N+](=O)[O-])c1` as the compound, how does the Potency read?
The Potency was inconclusive [cytotoxic, single point].

For `O=S(=O)(Nc1nc2ccccc2nc1NCc1ccco1)c1ccc(Cl)cc1`, which Potency is on record?
Its Potency is inconclusive [cytotoxic, single point].

For `COc1ccc(-c2c(C)cc3oc(=O)cc(-c4ccccc4)c3c2C)cc1C=O`, which Potency is on record?
The Potency was inconclusive [cytotoxic, single point].

With `O=C(CN1CCN(c2ncccn2)CC1)Nc1ccccc1-n1cccc1` as the compound, how does the Potency read?
Its Potency is “inactive”.

With `Cc1nc(SCCC(=O)O)c2cc(-c3ccccc3)sc2n1` as the compound, how does the Potency read?
The Potency was “inactive”.

For `Cc1nn(-c2ccccc2)c(C)c1/C=N/Nc1nc2ccccc2[nH]1`, which Potency is on record?
The Potency was inconclusive [cytotoxic, single point].

With `COc1cc(NC(=O)c2cccc(Br)c2)nc(OC)n1` as the compound, how does the activity, negative = less viability read?
The activity, negative = less viability was inconclusive: 1.28%.

For `CC1=C/C(=C(/c2cc(C)c(O)c(Br)c2)c2ccccc2S(=O)(=O)O)C=C(Br)C1=O`, which Potency is on record?
Its Potency is inconclusive [cytotoxic, single point].

From PubChem BioAssay AID686970 (National Center for Advancing Translational Sciences (NCATS), 2013)
